Test results from PubChem BioAssay AID2107 (National Center for Advancing Translational Sciences (NCATS), 2009).
The campaign covered roughly 240,000 compounds. About 20 (0.008%) were called active. The shares of active, inactive and inconclusive entries below differ from those in the screen. The call rests on the fitted dose curve; in most records, active means well fitted inhibition curve with a large enough effect; inconclusive means small, poorly fitted or top-dose-only effect, or effect the other way; inactive means flat fitted curve, though single readings scatter. Potencies of inconclusive entries are left out as doubtful fits.

Biological target: Alpha-galactosidase A (Homo sapiens) (UniProt P06280)
UniProt P06280, sequence (P06280 whole entry, looked up): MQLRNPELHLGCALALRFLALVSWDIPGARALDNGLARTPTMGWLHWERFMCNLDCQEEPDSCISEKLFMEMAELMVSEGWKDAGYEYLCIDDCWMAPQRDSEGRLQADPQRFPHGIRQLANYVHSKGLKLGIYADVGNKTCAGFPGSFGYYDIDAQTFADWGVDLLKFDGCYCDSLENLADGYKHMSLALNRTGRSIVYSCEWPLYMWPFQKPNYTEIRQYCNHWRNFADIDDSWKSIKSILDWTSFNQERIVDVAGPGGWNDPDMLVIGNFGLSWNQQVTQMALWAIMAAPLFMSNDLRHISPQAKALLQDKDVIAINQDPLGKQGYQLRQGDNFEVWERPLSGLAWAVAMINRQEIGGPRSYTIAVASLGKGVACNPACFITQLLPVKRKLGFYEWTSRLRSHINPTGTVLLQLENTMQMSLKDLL
Assay: qHTS Assay for Inhibitors and Activators of Human alpha-Galactosidase From Spleen Homogenate;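 on activity change, negative = inhibition: 0% = enzyme with vehicle and -100% = no enzyme basal signal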
Conditions: 4MU-alpha-Gal fluorescence, 40 min; activity change, negative = inhibition: at 80 µM (top of the series)
Summary of the method: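 qHTS titration in buffer at pH 5.0. Alpha-galactosidase activity in spleen homogenate was measured via 4-methylumbelliferone release from 1 mM fluorogenic substrate after 40 min at 37C and a pH 10 stop. AC50 came from Hill fits of control-normalized data.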
Potency means the concentration at half of the fitted maximal effect; tags describe the fitted curve by direction and shape.

Row | SMILES | Potency | activity change, negative = inhibition
1 | CC(Nc1nc(N2CCN(S(C)(=O)=O)CC2)nc2ccccc12)c1ccccc1 (configuration not stated) | inconclusive [activator, partial curve] | 
2 | c1ccc2c(N3CCOCC3)nc(N3CCOCC3)nc2c1 | inconclusive [activator, partial curve] | 
3 | CC1(C)OC2CC(=O)OCC23C1CC(=O)C1(C)C3CC[C@@]2(C)[C@H](c3ccoc3)OC(=O)C3OC312 (some centres not stated) |  | inactive: -5.51%
4 | Cc1cc(-c2ccc(C(=O)O)s2)cnc1N | inconclusive [activator, full curve] | 
5 | CCn1c(=O)cc(SCC(=O)Nc2ccc(Cl)cc2)c2ccccc21 | inconclusive [activator, single point] | 
6 | COc1cc(C(=O)N(Cc2cc3ccccc3[nH]c2=O)CC2CCCO2)cc(OC)c1OC (configuration not stated) | inconclusive [inhibitor, partial curve] | 
7 | CC(C)NCC(O)c1ccc(NS(C)(=O)=O)cc1 (configuration not stated) | inconclusive [activator, full curve, poor fit] | 
8 | CCC(=O)Nc1c(OC(=O)CC)ccc2c(C)cc(=O)oc12 | inconclusive [activator, full curve] | 
9 | c1ccc(CCn2nnnc2CN2CCCc3ccccc32)cc1 | inconclusive [activator, single point] | 
10 | CCc1ccccc1NC(=O)CSc1nnc([C@@H]2CCCN2C(=O)OC(C)(C)C)o1 | inconclusive [inhibitor, single point] | 
11 | Cc1cc(-c2ccccc2)nc(N/N=C/c2ccc([N+](=O)[O-])cc2)n1 |  | inactive: -22.6%
12 | COCCNC(=O)C1=C(N)C(C(=O)Nc2ccc(C)c(S(=O)(=O)N3CCCCC3)c2)SC1=Nc1ccc(C)cc1C (configuration not stated) |  | inactive: 0.987%
13 | CC(C)[C@H](NC(=O)c1ccccc1)C(=O)OCc1nc2scc(-c3ccccc3)c2c(=O)[nH]1 |  | inactive: 8.89%
14 | COCCCn1c(=NC(=O)c2ccncc2)c(C#N)cc2c(=O)n3cccc(C)c3nc21 | inconclusive [activator, full curve] | 
15 | COc1ccc2c(c1)CCc1cn3ncc(C#N)c3nc1-2 | inconclusive [activator, partial curve] | 
16 | O=c1c(-c2nc3ccccc3s2)cccn1Cc1ccccc1 | inconclusive [activator, partial curve] | 
17 | C=CCc1cc(C(=O)N2CCCCC2)ccc1O |  | inactive: -1.65%
18 | CN(C)c1ncc2nc(-c3cc(F)cc(F)c3)c(=O)n(CCc3ccccc3)c2n1 | inconclusive [inhibitor, partial curve, poor fit] | 
19 | OCl |  | inactive: 4.93%
20 | COc1cc(C(=O)O[C@@H]2CC3CC[C@]2(C)C3(C)C)ccc1O |  | inactive: -0.354%
21 | CCCn1c(/C=C/c2ccccc2)nc2ccccc21 | inconclusive [activator, partial curve] | 
22 | Clc1ccc(/C=C\c2nccc3c2[nH]c2ccccc23)cc1 | inconclusive [activator, partial curve] | 
23 | COC(=O)N(C)c1ccccc1C(=O)N1CCOCC1 | inconclusive [inhibitor, single point] | 

Row | SMILES | Potency | activity change, negative = inhibition
24 | Cc1ccccc1OCC1CO1 (configuration not stated) | inconclusive [inhibitor, partial curve] | 
25 | Cc1ccc2nc(-c3ccc(-c4ccccn4)s3)cn2c1 | inconclusive [activator, partial curve] | 
26 | CCOC(=O)C1=CN(C(=O)OC(C)(C)C)C(CN2C(=O)COCC2=O)C1 (configuration not stated) | inconclusive [activator, full curve, poor fit] | 
27 | Cc1ccccc1CN1CCN(CC(=O)NCc2ccco2)C1=O | inconclusive [inhibitor, partial curve, poor fit] | 
28 | COc1ccc(S(=O)(=O)N(C)CC(=O)N2CCCCCC2)cc1OC | inconclusive [inhibitor, partial curve] | 
29 | CC(C(=O)Nc1cccnc1)N1C(=O)C2C3C=CC(C3)C2C1=O (configuration not stated) |  | inactive: -3.76%
30 | CN1CCc2c(sc3c2C(=O)NC(c2ccccc2)N3)C1 (configuration not stated) | inconclusive [activator, single point] | 
31 | CCn1c(NCc2ccco2)nc2c1c(=O)n(C)c(=O)n2C | inconclusive [inhibitor, single point] | 
32 | CC(=O)N1CCc2cc(C(=O)CN3CCN(C(=O)c4ccco4)CC3)ccc21 |  | inactive: 1.47%
33 | C[C@]12CC(O)C3C(CCC4=CC(=O)CC[C@@]43C)C1CCC2c1csc(-c2ccccc2)n1 (some centres not stated) | inconclusive [activator, partial curve, poor fit] | 
34 | O=C(NCc1ccccn1)c1cc2c(ccc3ccccc32)oc1=O | inconclusive [activator, single point] | 
35 | COc1cc(OC)c2c(C)c(Cl)c(=O)oc2c1 | inconclusive [activator, single point] | 
36 | O=C(O)c1cc2c(ccc3ccccc32)o1 | active: 39.8 µM | 
37 | COCCn1c(-c2cc(OC)c(OC)c(OC)c2)nc2nc3ccccc3nc21 | inconclusive [activator, partial curve, poor fit] | 
38 | CCC(=O)Nc1ccc(-c2nnc(SCC(=O)NCC3CCCO3)n2C)cc1 (configuration not stated) | inconclusive [inhibitor, partial curve] | 
39 | Cc1cc(SCC(=O)Nc2cccc(S(=O)(=O)NC3=NCCCCC3)c2)c(C)cc1Br | inconclusive [inhibitor, partial curve, poor fit] | 
40 | O=C(NCc1ccco1)c1ccc2c(c1)N(Cc1ccccc1)CCS2 | inconclusive [activator, partial curve] | 
41 | COc1ccc(-c2nc(N)n(C(=O)Cc3ccccc3)n2)cc1 | inconclusive [inhibitor, single point] | 
42 | CC(C)=CCCC(C)NC(=O)NC1CCCCC1 (configuration not stated) | inconclusive [inhibitor, single point] | 
43 | CCN(CC)c1nc(OC)nc(-n2nnc(C(C)=O)c2C)n1 | inconclusive [activator, single point] | 
44 | COc1ccccc1N1CCN(C(=O)c2c(-c3ccccc3Cl)noc2C)CC1 |  | inactive: 6.76%
45 | O=C(COC(=O)c1ccccc1NC(=O)c1ccco1)Nc1ncc(Cl)cc1Cl | inconclusive [activator, single point] | 
46 | OC[C@@H]1[C@@H](c2ccc(Cl)cc2)C(c2cccc(Cl)c2)=NN1c1ccccc1 | inconclusive [activator, partial curve] | 

Row | SMILES | Potency | activity change, negative = inhibition
47 | Cc1cc(=O)oc2c(CN(CC(C)C)CC(C)C)c(O)ccc12 | inconclusive [activator, partial curve] | 
48 | O=c1cc(-c2cccc(O)c2O)oc2ccccc12 |  | inactive: -6.06%
49 | OCc1ccc(-c2ccc(-c3ccc(CO)s3)o2)s1 | inconclusive [activator, partial curve] | 
50 | Cc1cc(=O)oc2cc(OCC(=O)NCCc3nc4ccccc4[nH]3)ccc12 |  | inactive: 17.2%
51 | CCCc1cc(NCCCO)n2c(nc3ccccc32)c1C#N | inconclusive [activator, partial curve] | 
52 | CN(C)CCCNc1oc(/C=C/c2ccccc2)nc1C#N | inconclusive [activator, partial curve] | 
53 | NC(=S)N/N=C/c1c(O)ccc2ccccc12 | inconclusive [activator, single point] | 
54 | CCN(CC)CCCNc1oc(/C=C/c2ccccc2)nc1C#N | inconclusive [activator, partial curve] | 
55 | COCCNC(=O)Cn1c(=O)n(Cc2ccco2)c(=O)c2ccccc21 | inconclusive [inhibitor, single point] | 
56 | O=C(Nc1ccc2c(c1)OCCO2)c1cc(-n2cnnc2)ccc1Cl | inconclusive [inhibitor, single point] | 
57 | Cc1cccc(C)c1N1CCN(C(=O)Cn2cncn2)CC1 |  | inactive: 1.22%
58 | O=C1c2cnc3ncnn3c2CC2c3ccccc3CCN12 (configuration not stated) | inconclusive [activator, full curve, poor fit] | 
59 | Cc1ccc(C)c(NC(=O)CSc2nc3nc(-c4cccs4)cc(C(F)(F)F)c3c(=O)[nH]2)c1 | inconclusive [activator, full curve] | 
60 | CCOC(=O)CN(C(=O)CSc1nnc(-c2cccc(OC)c2)o1)c1ccc(F)cc1 | inconclusive [inhibitor, single point] | 
61 | Cc1ccc2nc3c(cc(C#N)c(=N)n3CC3CCCO3)c(=O)n2c1 (configuration not stated) | inconclusive [activator, partial curve] | 
62 | O=C(Nc1cccn2ncnc12)c1ccc(Cl)cc1 | inconclusive [inhibitor, partial curve] | 
63 | Cc1nc(-c2ccccc2)nc2[nH]ccc(=O)c12 | inconclusive [inhibitor, single point] | 
64 | CCCCCOc1ccc(/C=c2\sc3nc(=O)c(-c4ccccc4)nn3c2=O)cc1OC |  | inactive: -21.9%
65 | CCOC(=O)c1cc2sc(C)cc2n1CC(=O)NCCc1ccccc1 | inconclusive [inhibitor, single point] | 
66 | Cc1cc(/C=N/NC(=O)C(O)(c2ccccc2)c2ccccc2)c(C)n1-c1ccc(C(=O)O)cc1 | inconclusive [inhibitor, single point] | 
67 | CCOC(=O)C1=C(CC)Nc2ccccc2N=C1NC(=O)c1ccc(S(=O)(=O)N(C)C)cc1 | inconclusive [activator, partial curve, poor fit] | 
